From PMC6919601, “Identification of Plasmodium dipeptidyl aminopeptidase allosteric inhibitors by high throughput screening” (PLoS ONE, 2019)
Values joined by “and” are separate entries in the source; they are usually repeats but may differ in a detail not shown here. Equal values may be shown once. The campaign covered roughly 110,000 compounds. About 230 (0.21%) showed an effect of 50% or more. The list shows a part of the results.

Biological target: DPAP1 (Plasmodium falciparum, UniProt Q8IIJ9)
Experiment: primary screen, percent inhibition; read by cleavage of a fluorogenic dipeptide substrate; higher = more effect of the substance
Set-up: species or system P. falciparum D10 trophozoite lysates; single well
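Also: 30 min substrate incubation versus DMSO and 10 µM JCP410 controls.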

DPAP1, sequence (Q8IIJ9 whole entry, looked up): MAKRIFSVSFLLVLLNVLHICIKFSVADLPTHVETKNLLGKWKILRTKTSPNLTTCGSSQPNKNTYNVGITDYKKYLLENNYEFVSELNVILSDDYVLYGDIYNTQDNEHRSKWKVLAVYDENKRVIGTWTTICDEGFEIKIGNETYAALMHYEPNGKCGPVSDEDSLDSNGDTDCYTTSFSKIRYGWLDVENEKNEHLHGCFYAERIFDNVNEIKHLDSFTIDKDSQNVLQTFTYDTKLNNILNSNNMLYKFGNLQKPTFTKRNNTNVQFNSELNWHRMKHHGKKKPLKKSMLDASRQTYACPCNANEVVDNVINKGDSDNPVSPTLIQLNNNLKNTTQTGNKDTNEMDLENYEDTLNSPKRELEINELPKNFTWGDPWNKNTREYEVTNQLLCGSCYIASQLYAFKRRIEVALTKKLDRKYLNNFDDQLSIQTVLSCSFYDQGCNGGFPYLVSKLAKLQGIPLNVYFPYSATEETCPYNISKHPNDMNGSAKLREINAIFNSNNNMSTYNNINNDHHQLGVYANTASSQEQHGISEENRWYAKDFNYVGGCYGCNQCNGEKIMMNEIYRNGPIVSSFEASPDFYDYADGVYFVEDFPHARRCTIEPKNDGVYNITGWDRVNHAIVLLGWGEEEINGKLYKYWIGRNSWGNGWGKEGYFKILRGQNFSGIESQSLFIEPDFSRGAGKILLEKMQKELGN

| SMILES | % Inhibition @ 10 uM |
| --- | --- |
| COc1cc(C)c(/C=C2/NC(=O)NC2=O)cc1C(C)C | -2.98% |
| Cc1c(C(=O)N(C)CCC#N)oc2ccc(S(=O)(=O)N3CCOCC3)cc12 | 0.387% |
| CCOC(=O)N1CCC(NCc2ccccc2Cl)CC1 | 5.03% |
| CN1CCN(S(=O)(=O)c2cnccc2N2CCN(c3cccc(Cl)c3)CC2)CC1 | 0.83% |
| Cc1nn(C(C)C(=O)N2CCOCC2)c(=O)c2nn(-c3ccccc3)c(C)c12 (stereo not drawn) | -2.49% |
| Cc1ccc(CSc2nc3ccc(C(=O)N4CCCC4)cc3n2C)cc1 | -2.31% |
| O=C(Nc1cnc(O)nc1O)c1ccccc1 | 1.27% |
| Cc1ccccc1S(=O)Cc1ccc(C(=O)NC2CCN(Cc3ccccc3)CC2)o1 (stereo not drawn) | 4.9% |
| CCOc1ccc(NC(=O)C2=C(C)NC(=O)NC2c2ccc(O)cc2)cc1 (stereo not drawn) | -3.5% |
| NS(=O)(=O)c1ccc(CCNC(=O)c2cc(=O)c3cc(Cl)ccc3o2)cc1 | 1.7% |
| O=C(c1ccc(Br)cc1)N(Cc1ccccc1)c1ccccn1 | 0.366% |
| COc1ccc(CCNC(=O)CNS(=O)(=O)c2cccs2)cc1OC | -2.12% |
| COc1ccc(C(=O)Nc2ccc(S(=O)(=O)Nc3cc(C)nc(C)n3)cc2)cc1OC | 1.05% |
| CCCCCn1c(CN2CCc3ccccc3C2)nc2c1c(=O)n(C)c(=O)n2C | 0.317% |
| CCCCN(Cc1ccco1)C(=O)Cn1ncc2c1-c1cc(C)ccc1OC2 | 1.47% |
| Cc1oc(-c2ccc(Cl)cc2)nc1CN1CCC(C(=O)NCCN(C)CCc2ccccc2)CC1 | 8.55% |
| CCOc1cc(C(=O)N2CC(C)OC(C)C2)cc(OCC)c1OCC (stereo not drawn) | 3.04% |
| COc1ccc(C)cc1NC(=O)c1ccc(Cl)cc1Cl | 5.73% |
| CC(C)CNS(=O)(=O)c1ccc(CCC(=O)NC2CC2)cc1 | -2.28% |
| CC1=C(C(=O)Nc2ccccc2)C(c2cccs2)n2c(s/c(=C/c3cn(C)nc3C)c2=O)=N1 (stereo not drawn) | -3.04% |
| COc1ccc(CNc2nc(-c3ccco3)nn2C(=O)c2ccco2)cc1 | -5.08% |
| CCOc1ccc(N2C(=O)/C(=C/c3ccc(C)o3)C(=O)NC2=S)cc1 | 7.31% |
| O=S1(=O)CCC(NC(=S)SCc2ccccc2)C1 (stereo not drawn) | 4.88% |
| Cn1c(=O)[nH]c(=O)c2c1nc(NCCc1ccccc1)n2Cc1ccccc1Cl | 3.66% |
| CCC(=O)Nc1ccc2nc(SCC(=O)N3CCOCC3)sc2c1 | -4.67% |

| SMILES | % Inhibition @ 10 uM |
| --- | --- |
| NS(=O)(=O)c1ccc(NC(=O)C2CCN(C(=O)c3cccs3)CC2)cc1 | 4.53% |
| O=S(=O)(NCC(c1ccccc1)N1CCCCCC1)c1ccc(Cl)cc1 (stereo not drawn) | 5.7% |
| COc1ccc2nc(N3CCCC(C(=O)NCCCOC(C)C)C3)sc2c1 (stereo not drawn) | -3.79% |
| Brc1ccc(-n2nnnc2-c2ccccc2)c(Br)c1 | 7.5% |
| CCCn1c(=N)n(CC(=O)c2cccs2)c2ccccc21 | -4.03% |
| Cc1cc(C(F)(F)F)nn1CC(=O)Nc1ccc(Cl)c(Cl)c1 | 3.96% and 4.31% |
| COc1ccc(-c2cn3c(n2)sc2cc(C(=O)NCCN(C)C)ccc23)cc1 | 4.03% |
| Cc1sc(NC(=O)COc2ccc(-c3ccccc3)cc2)c(C(N)=O)c1C | -3.26% |
| O=C(O)C1Sc2ccccc2Oc2ccccc21 (stereo not drawn) | 3.75% |
| Cc1ccc(NS(=O)(=O)c2ccc(Cl)cc2)cc1O | -5.81% |
| COc1ccc(C(C)=O)cc1CN1CCCCC1 | -2.44% |
| CCN(CC)C(=O)/C(=C/c1cn(CC)c2ccccc12)NC(=O)c1ccccc1OC | -1.74% |
| CC(C)C[C@H](NC(=O)[C@H]1CCCN1C#N)C(=O)OCc1ccccc1 | 0.744% |
| COc1ccc(-c2cn3c(n2)sc2cc(C(=O)N4CCN(c5ncccn5)CC4)ccc23)cc1 | 7.87% |
| CC1CC(C)CN(C(=O)C2CCCN(S(=O)(=O)c3c[nH]cn3)C2)C1 (stereo not drawn) | 1.26% |
| Cc1ccc2oc(-c3ccco3)c(O)c(=O)c2c1 | 0.0539% |
| Cn1c(=O)c2nc(N3CCCCCC3)[nH]c2n(C)c1=O | 0.248% |
| CCOC(=O)C1CCN(Cc2cccc(F)c2)CC1 | 4.66% |
| O=C(Nc1ccccc1)c1ccc(Br)cc1 | -4.11% |
| O=C(CN1N=C(c2ccccc2)CCC1=O)NCCC1=CCCCC1 | 3.79% |
| COc1nc(N2C(C)CCCC2C)nc(N2C(C)CCCC2C)n1 (stereo not drawn) | -0.693% |
| O=C(Cn1ncn2nc(-c3cccs3)cc2c1=O)NCCCN1CCC(Cc2ccccc2)CC1 | 2.27% |
| CCSCCO/C(O)=C1\C(C)=NC2=C(C(=O)CC(c3ccccc3OC)C2)C1c1ccsc1 (stereo not drawn) | -2.98% |
| O=C1CCC(=O)N1CCc1c[nH]c2ccc(OCc3ccccc3)cc12 | -2.08% |
| Cc1ccc(S(=O)(=O)NC2=NC(=O)/C(=C/c3ccccc3)S2)cc1 | 1.91% |

| SMILES | % Inhibition @ 10 uM |
| --- | --- |
| CCOC(=O)c1ccc(CNCc2ccc(C)cc2)cc1 | 9.04% |
| Cc1cc(C)n2nc(SC(C)C(=O)NC3CCCCCCC3)nc2n1 (stereo not drawn) | 1.16% |
| COc1ccc(NC(=O)C2=C(C)Nc3nc(CCCO)nn3C2c2ccc(Cl)cc2)cc1 (stereo not drawn) | 13.2% |
| CCCN1C(=O)c2[nH]nc(-c3ccccc3)c2C1c1cccnc1 (stereo not drawn) | -1.07% |
| c1ccc2c(c1)CCN(c1nc3ccccc3n3cnnc13)C2 | 26.6% |
| CN1CCN(Cc2ccc(-c3ccccc3)cc2)CC1 | 2.47% |
| Cc1ccc(S(=O)(=O)Nc2ccc(NC(=O)c3ccc(F)cc3)cc2)cc1 | -3.26% |
| CCOc1ccc(S(=O)(=O)NC(C)(C)C)cc1C#N | 1.84% |
| O=C(O)c1ccccc1C(=O)Nc1cccc([N+](=O)[O-])c1 | -4.02% |
| O=C(Nc1ccc(O)cc1)c1cc2ccccc2c(=O)s1 | 6.18% |
| COCCCn1c(=O)c2sccc2n2c(CCCC(=O)NCc3ccc(OC)cc3)nnc12 | -4.46% |
| Cc1ccc(OCc2nc(-c3ccccn3)no2)c(Br)c1 | -3.39% |
| Cc1c(C(=O)NCc2ccc(F)cc2)oc2ccc3c(c12)C=CC(C)(C)O3 | -1.11% |
| COc1ccc(C2C=C(c3ccc(C(C)C)cc3)Nc3ncnn32)cc1OC (stereo not drawn) | -3.23% |
| O=C(CCCn1c2ccccc2c2cnnc(O)c21)NCCc1ccccc1 | -2% |
| CCS(=O)(=O)N1CCC(C(=O)NC2CCCC(C)C2C)CC1 (stereo not drawn) | 0.514% |
| Cc1cc(C)cc(N(CC(=O)Nc2cccc(C(F)(F)F)c2)S(C)(=O)=O)c1 | -10.2% |
| CCn1c2ccccc2c2cc(CN3CCCC(C)C3)ccc21 (stereo not drawn) | -0.0494% |
| Cn1ncc2c(NCCc3ccc(Cl)cc3)ncnc21 | 2.72% |
| CCCCOc1ccc(C(=O)NCCSc2c[nH]c3ccccc23)cc1 | 0.505% |
| CC1(C)Cc2c(sc(N)c2C(=O)O)CO1 | 0.198% |
| COc1cccc(C(CC#N)OC(=O)c2ccc([N+](=O)[O-])cc2)c1 (stereo not drawn) | 0.00178% |
| O=C(Cn1ncc2c3ccccc3n(Cc3cccc(Cl)c3)c2c1=O)NCC1CCCO1 (stereo not drawn) | -1.58% |
| O=C(Cn1cccc1C(=O)c1ccccc1)NC1CCCC1 | 25% |
| Cc1cc2nc(CSc3nnc(NC(=O)COc4ccccc4C)s3)cc(=O)n2o1 | -2.83% |

| SMILES | % Inhibition @ 10 uM |
| --- | --- |
| Cn1c(C(=O)NCc2ccccc2)cc2sc(Cl)cc21 | -1.37% |
| O=C(NCCCN1CCOCC1)c1ccc2nc(-c3ccco3)c(-c3ccco3)nc2c1 | 4.7% |
| COc1ccccc1CNC(=O)c1ccc(Cn2nc(C)c(Br)c2C)o1 | -6.68% |
| COC(=O)C1=CN(Cc2cccs2)C=C(C(=O)OC)C1c1ccc2c(c1)OCO2 | -1.46% |
| CC(C)N1C(=O)CCC1C(=O)NCCc1ccc(Cl)cc1 (stereo not drawn) | -4.97% |
| Cc1ccccc1CS(=O)(=O)CCC(=O)NCc1ccc(F)cc1Cl | -0.0542% |
| O=C(CSc1nc(-c2ccco2)cc(C(F)(F)F)n1)N1CCN(Cc2ccccc2)CC1 | -6.55% |
| OC1=C2C(=Nc3nc(-c4ccccc4)nn3C2c2cccc(Br)c2)CCC1 (stereo not drawn) | -2.83% |
| Fc1ccc(N2CCN(Cc3ccc(Cl)cc3)CC2)cc1 | -0.197% |
| Cc1cc(C)cc(NC(=O)C2CCN(S(=O)(=O)c3ccc(Cl)cc3)CC2)c1 | 1.86% |
| CC(C(=O)NCc1cccnc1)n1ncn2cccc2c1=O (stereo not drawn) | 9.72% |
| COc1ccc(-c2cn(-c3ccccc3)c3[n+]2CCS3)cc1 | 1.86% |
| COc1cc(C=C2C(=O)c3ccccc3C2=O)ccc1OCc1ccccc1 | -3.44% |
| Cc1ccc(CCNC(=O)CSCc2nc(-c3sccc3C)oc2C)cc1 | -4.71% |
| CCOC(=O)c1c(C)nc(N)nc1N | -0.415% |
| Cc1cc(NC(=O)c2cccc(C(=O)Nc3cc(C)on3)n2)no1 | -10.8% |
| O=C1CC(c2ccccc2)c2c(-c3ccccc3)n[nH]c2O1 (stereo not drawn) | 4.31% |
| CCCC[C@H](NC(=O)[C@H](CS(=O)(=O)Cc1ccccc1C(F)(F)F)NC(=O)N1CCOCC1)C(=O)c1nc2ccccc2o1 | -1.83% |
| Cc1cccc(-n2cnc3cc(C(=O)NCc4ccc5c(c4)OCO5)ccc32)c1 | -3.78% |
| COc1ccc(-c2nc3scc(CCNC(=O)c4ccc(Br)cc4)n3n2)cc1 | 3.05% |
| O=c1c2ccccc2n2c(-c3c[nH]c4ccccc34)nnc2n1Cc1ccccc1 | 1.68% |
| COc1ccc(-c2cc(C(=O)NCc3ccco3)no2)cc1 | 2.01% |
| O=C(O)CC(CN1C(=O)C(O)=C(C(=O)c2ccccc2)C1c1ccccc1F)c1ccccc1 (stereo not drawn) | 5.03% |
| N#Cc1c(NC(=O)c2cc(-c3cccc(O)c3)on2)sc2c1CCCC2 | 0.628% |
